Screen size: about 360,000 compounds; about 2,600 (0.72%) were called active. Inconclusive means that the source gave no clear call. Such entries were picked first, then a sample of the others. Calls follow the shape of the dose curve; as a rule, active = well fitted inhibition curve with a large enough effect; inconclusive = small, poorly fitted or top-dose-only effect; inactive = no such curve, though single readings can be large or run the other way. Where the call is inconclusive, the potency comes from a doubtful curve fit.
Experiment: Primary qHTS for Inhibitors of ATXN expression; also: nearly all actives have a fitted effect of over 55% in size
Conditions: HEK-293 ATXN2-luciferase reporter, luminescence, 24 h; activity change, negative = inhibition: at 57 µM (top of the series)
How it was run: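 qHTS (up to 57 uM final) was run with 24 h compound exposure of reporter cells at 37 °C. Each well was multiplexed: SteadyGlo luminescence measured ATXN2-luciferase expression after a fluorogenic Gly-Phe-AFC viability readout (25 uM final).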
% is scaled to controls: 0 for no effect and ±100 for the full control effect; potency is read from the fitted curve at half-maximal effect; tags tell the direction and shape of the fitted curve.

Potency, inconclusive:
COC(=O)Nc1ccc(S(=O)(=O)NNC(=O)c2c(O)c3ccccc3[nH]c2=O)cc1 28.2 µM [inhibitor, single point], CCOC(=O)c1cc(-c2ccc(C)cc2)n(CCC(=O)Nc2ccc(OC)c(OC)c2)c1C 20 µM [inhibitor, partial curve, poor fit], Cc1cccc(-c2nc(SCC(=O)Nc3ccc4c(c3)OCO4)c(-c3ccccc3)[nH]2)c1 31.6 µM [inhibitor, single point], O=C(CCn1c(=O)c2cccn2c2cccnc21)N1CCN(c2cccc(Cl)c2)CC1 39.8 µM [inhibitor, partial curve, poor fit], COc1ccc(C(=O)/C=C/c2ccc(N3CCCCC3)c([N+](=O)[O-])c2)c(OC)c1 39.8 µM [inhibitor, single point], COC(=O)N1C(=O)[C@@](c2ccccc2)(C2CCCC2)N1C(=O)OC 31.6 µM [inhibitor, single point], CCCCCC(=O)N1C[C@H](O)[C@@H](n2cc(-c3ccc(F)cc3)nn2)C[C@@H]1c1ccc(Cl)cc1 31.6 µM [inhibitor, single point], Cc1ccc(OCC(=O)Nc2ccccc2N2CCCC2)c(C)c1 3.16 µM [inhibitor, single point], COc1ccc(CCNC(=O)COc2ccc(S(=O)(=O)NC3CCCCC3)cc2Cl)cc1 25.1 µM [inhibitor, single point], COc1ccc2c(c1OC)C(=O)OC2[C@H]1c2c(cc3c(c2OC)OCO3)CCN1C (stereo partly drawn) 0.685 µM [inhibitor, full curve], O=C(c1ccco1)N1CCN(c2ncnc3scc(-c4cccs4)c23)CC1 39.8 µM [inhibitor, single point], Cc1ccc(N(C)C(=O)C2CCCN(c3ncnc4c3nc3n4CCCCC3)C2)cc1C (stereo not drawn) 39.8 µM [inhibitor, single point], O=C(Nc1ccncc1)c1cccc(S(=O)(=O)N2CCc3ccccc32)c1 2.24 µM [inhibitor, full curve, poor fit], COc1ccc(OC)c(CCNC(=O)CCc2cn(C)c3ccccc23)c1 10 µM [inhibitor, single point], COc1ccc(N2CCc3c(C)nc4c(OC)cc(OC)cc4c32)c(OC)c1 14.1 µM [inhibitor, partial curve, poor fit], O=C(Nc1ccc(CN2CCOCC2)cc1)c1ccc(-c2ccc(Cl)cc2Cl)o1 28.2 µM [inhibitor, partial curve], CCCCn1c(SCC(=O)Nc2cc(C(F)(F)F)ccc2Cl)nnc1C(CC)N(C)C (stereo not drawn) 12.6 µM [inhibitor, partial curve, poor fit], CC1=C([N+](=O)[O-])C(c2ccccc2)C2=C(N1)c1ccccc1C2=O (stereo not drawn) 0.501 µM [inhibitor, partial curve, poor fit], CC1C(=O)C(C)C(c2cc(Br)ccc2O)NC1c1cc(Br)ccc1O (stereo not drawn) 7.94 µM [inhibitor, partial curve, poor fit], CCN(CC)C(=O)NC(c1ccc(C)c(F)c1)C(Cl)(Cl)Cl (stereo not drawn) 12.6 µM [inhibitor, partial curve, poor fit], CCCC(=O)N1CCN(c2ccc(NC(=S)NC(=O)c3cccc(C)c3)cc2)CC1 15 µM [inhibitor, partial curve, poor fit], O=C(CSc1nnc(Nc2ccccc2F)s1)Nc1cccc(S(=O)(=O)N2CCCCC2)c1 37.7 µM [inhibitor, single point], Cc1cc(C(=O)OCC(=O)Nc2cccc(S(=O)(=O)N3CCOCC3)c2)c(C)o1 39.8 µM [inhibitor, single point], CCC/C=C/c1ccc(CN2C(CC(C)C)C(=O)N(Cc3cn(Cc4ccco4)nn3)CCS2(=O)=O)cc1 (stereo not drawn) 39.8 µM [inhibitor, single point], O=C(C1CCC(CNS(=O)(=O)c2cccs2)CC1)N1CCN(c2ccc(F)cc2)CC1 (stereo not drawn) 20 µM [inhibitor, partial curve, poor fit], Cc1ccc(N=N/C(=C\O)C(=O)c2ccc(Cl)cc2)cc1 17.8 µM [inhibitor, single point], O=C(Nc1nc(-c2ccc(F)cc2)cs1)C1CCN(C(=O)c2ccc(F)cc2)CC1 20 µM [inhibitor, single point], COC(=O)C1=C(C(=O)OC)C(C(=O)OC)C(C(=O)OC)C(C(=O)OC)(C(=O)OC)C(C(=O)OC)=C1C(=O)OC (stereo not drawn) 37.7 µM [inhibitor, single point], CC(=O)c1ccc(-c2cnc3c(NC=O)cc(-c4ccc(C(=O)NC5CC5)cc4)cn23)cc1 31.6 µM [inhibitor, partial curve, poor fit], Cc1cccc(OCC(=O)Nc2ccccc2N2CCN(C(=O)C(C)C)CC2)c1C 39.8 µM [inhibitor, partial curve, poor fit], C[C@H](CO)N1C[C@H](C)[C@H](CN(C)S(=O)(=O)c2cccc(F)c2)Oc2cc(Br)ccc2S1(=O)=O 39.8 µM [inhibitor, partial curve, poor fit], COc1ccc(OCC(=O)NC2CCCN(Cc3ccc(Cl)cc3)C2)cc1 (stereo not drawn) 14.1 µM [inhibitor, partial curve, poor fit], COc1ccc(NS(=O)(=O)c2ccc3[nH]c4c(c3c2)CCCCCC4)cc1 35.5 µM [inhibitor, partial curve, poor fit], CC(C)Oc1ccc(C(=O)Nc2ccc(Cl)c(S(=O)(=O)Nc3ccc(Cl)cc3)c2)cc1 39.8 µM [inhibitor, single point], COc1ccccc1N1CCN(C(CNC(=O)C(=O)NCCc2ccccc2)c2cccnc2)CC1 (stereo not drawn) 22.4 µM [inhibitor, partial curve, poor fit], COc1ccc(-n2cc(-c3ccc(C)cc3)[n+]3c2SCC3)cc1 17.8 µM [inhibitor, partial curve, poor fit], CCN1/C(=C\c2ccc3cc(C)ccc3[n+]2CC)Sc2cc(C)c(C)cc21 16.8 µM [inhibitor, partial curve, poor fit], O=C(CSCc1ccccc1Br)N/N=C/c1ccccc1C(=O)O 39.8 µM [inhibitor, single point], CC(C)N=C(NS(=O)(=O)c1ccccc1)C(Cl)(Cl)Cl 25.1 µM [inhibitor, single point], COc1ccc(-c2coc3c(C(=O)Nc4cc(OC)c(OC)c(OC)c4)cccc23)c(C)c1 7.94 µM [inhibitor, partial curve]

Potency, active:
O=C(NC1CCNCC1)c1[nH]ncc1NC(=O)c1c(Cl)cccc1Cl 0.385 µM, c1ccc(-c2cc(NCCN3CCCCC3)c3ccccc3n2)cc1 28.2 µM, CC(C)(C)C1C/C(=C/c2ccccn2)C(=O)/C(=C/c2ccccn2)C1 (stereo not drawn) 1.41 µM, CC1CCC(C(C)C)C(OC(=O)Cn2c(-c3ccc(F)cc3)[n+](C)c3ccccc32)C1 (stereo not drawn) 8.91 µM, C[C@@H](c1ccccc1)N1C[C@H](COCc2ccccc2)Oc2cc(N3CC[C@@H](N(C)C)C3)ccc2S1(=O)=O 28.2 µM, CC1(C)COCN1S(=O)(=O)c1ccc(C(=O)Nc2nnc(-c3ccc(Cl)s3)o2)cc1 7.94 µM

Potency, inactive:
COc1ccc(N2CCN(C(=O)Nc3cccc(C(F)(F)F)c3)CC2)cc1

Activity change, negative = inhibition, inactive:
COc1cccc(C(O)c2nc(-c3ccc(F)c(Cl)c3)cs2)c1 (stereo not drawn) -7.56%, COc1cnc(-c2ccccc2)nc1Oc1ccc(C(C)(C)C)cc1 -12.6%, CN1CCN(Cc2nc3c(c(=O)n(C)c(=O)n3C)n2CCCc2ccccc2)CC1 -24.7%, COc1cccc(C(c2sc3nc(C)nn3c2O)N2CCc3ccccc3C2)c1 (stereo not drawn) 3.6%, O=C(CSc1nnc(-c2ccccc2)n1-c1ccc(Cl)cc1)NNC(=S)Nc1ccccc1 -3.6%, CCCn1cc(S(=O)(=O)c2ccc(CC)cc2)c(=O)c2ccccc21 -2.26%, Cc1ccc([N+](=O)[O-])c(OCCN2CCc3ccccc3C2)c1 -4.28%, Cc1cc(C)cc(N(CC(=O)NCc2ccccc2Cl)S(=O)(=O)c2c(C)noc2C)c1 -30.1%, CCOC(=O)c1c(NC(=O)c2cc(-c3ccc(OC)cc3)on2)sc(C)c1C 8.69%, CCOC(=O)c1c(NC(=S)NC(C)=O)sc(C)c1C 1.19%, COc1ccc(C(=O)NC(=S)Nc2nnn(C)n2)cc1 9%, COC(=O)[C@]1(Cc2ccccc2)N[C@H](c2ccc(-c3ccc(Cl)c(Cl)c3)cc2)[C@@H]2C(=O)N(C)C(=O)[C@@H]21 -6.42%, Cc1cc(-n2c(C)nc3ccccc3c2=O)ccc1NC(=O)c1cccc([N+](=O)[O-])c1 -16%, COc1ccc(Cn2c(SC)nc3ccccc32)cc1[N+](=O)[O-] 0.333%, CC(C)C(=O)OCc1cc(=O)n2nc(C3CCCCC3)sc2n1 3.2%, COc1ccc([N+](=O)[O-])cc1NC(=O)COC(=O)c1ccccc1C(=O)c1ccccc1 0.272%
